In article PMC12136788:
This is one part of the list.

T1: UNK ZnF1-3 (human, UniProt Q9C0B0 31-174)
T1 sequence: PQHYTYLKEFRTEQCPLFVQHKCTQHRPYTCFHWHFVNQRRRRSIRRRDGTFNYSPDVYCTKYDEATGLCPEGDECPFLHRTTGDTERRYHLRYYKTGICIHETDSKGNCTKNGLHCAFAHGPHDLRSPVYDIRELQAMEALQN

B1: chr18:34476965:34476966:+_ENSMUSG00000005871_ENSMUST00000115781|mus_mus|FALSE|FALSE (ssRNA)
RNA: GGGAGUUCUACAGUCCGACGAUCCAGUUUCCUCCUCAGGGUUGGGCUUGGGGCUUCUUUGAUGAAAGUAGACUGGCGUACUAAUGCAGGCCUUUCUGAUCUGUCUGAUUCACUUCCACUUGAUUUAGUUGAAGACAUUCUAGACAACAGAGGAUUGAGCAUCA
B2: chr17:1265283:1265284:-_ENSG00000108953_ENST00000571732|hu_hu|FALSE|FALSE (ssRNA)
RNA: GGGAGUUCUACAGUCCGACGAUCGUUAGCUGCUGGAAUGAGGUGUUUGUCCAGUACAUCCAGAAUGUCACAACAGAUUAACUUUAGCUCAGUCUCAACCAUUUGCCGAUAUUCCCGAAUCAUUUUUAGCUUGUCUUCUCCUCCCAACAGAGGAUUGAGCAUCA
B3: 29539073_29539193_618_CDS_ENSMUSG00000012535_ENSMUST00000012679|mouse|control|control (ssRNA)
RNA: GGGAGUUCUACAGUCCGACGAUCAGUUAGCAAUGAGUCCCUUAAAGAAGCAUGAGAGUCUGUGGGGAGCUCAUAAAAUGAGGUCUGAAUCUUCAUUUUCAUGGUCUGGGCAGCGAAAUAGCAUGAUUCCACAUCCUGUCGGAUCAACAGAGGAUUGAGCAUCA
B4: chr12:42180722:42180723:-_ENSMUSG00000036295_ENSMUST00000043884|mus_hu|mus_mus_mus_hu_True|8_108 (ssRNA)
RNA: GGGAGUUCUACAGUCCGACGAUCCUGUAGGAGCAGAAUCUGUGUGUUAGCUGGCAAUCUGGCUGGGAAAGUUAAAAGACCUAAAUCAUUACAAUCCACUGUAGAUGCUUCCAUAUAAAUGGAUCUGGGGGUAAACCAAGGCCUCAACAGAGGAUUGAGCAUCA
B5: chr1:163295886:163295887:+_ENSG00000143228_ENST00000271452|hu_hu|motif|central (ssRNA)
RNA: GGGAGUUCUACAGUCCGACGAUCGGUUUUUACCAUCAGCUCCUGUUAAGAUCUUAUUGCGAAUAUGAAUCACAAUCUCAGCGGCAUUAUAUCUGGGGAAAGACAAAGUUUCCAUCUUGGAAGUUUCCUGUUAAUCUCCCAGGCCAACAGAGGAUUGAGCAUCA
B6: chr2:37284132:37284133:-_ENSMUSG00000066798_ENSMUST00000053098|mus_mus|FALSE|FALSE (ssRNA)
RNA: GGGAGUUCUACAGUCCGACGAUCAUACAGAUUGGGUGGGGGGCAACACUACAUGUGCUGCAUUUUUAUAAAAUGUGUCUAAAAAAGUCAUUGAUUUGAUUACAGUAGAUUCUGCCGUUUGAGAUCAGGCCUAGAUAAUUUUUCCAACAGAGGAUUGAGCAUCA
B7: chr3:176740097:176740098:-_ENSG00000177565_ENST00000430069|hu_mus|hu_hu_hu_mus_True|48_108 (ssRNA)
RNA: GGGAGUUCUACAGUCCGACGAUCUGUUUUUUACACCACAAAAGGAGGCACUUUCAGUAUCUGCAAAAGGUGUUUAGUCCUAAAACAUACUUACCUAGAGGAUAACUCAGGAAAACAAUCUGUUACACUCUAAGACCUACUCCACAACAGAGGAUUGAGCAUCA
B8: chr1:6238667:6238668:+_ENSMUSG00000025907_ENSMUST00000027040|mus_mus|motif|central (ssRNA)
RNA: GGGAGUUCUACAGUCCGACGAUCCAUCAUUUCUGGACUUUGUGGAUCACUUAUAGGGUUUGGAGACGAUAAAUUUUCUUCGGUCACAAACUCAUUCACAGCAGACAUAAAGUCAGACUCAGGGCUUUCUGCUAAUGAAUCCAACAACAGAGGAUUGAGCAUCA
B9: chr1:52991732:52991733:-_ENSG00000134744_ENST00000257177|hu_hu|FALSE|FALSE (ssRNA)
RNA: GGGAGUUCUACAGUCCGACGAUCUUUAGGACCUGGAAGGUUGGCAGCAUUUACUUUACAUGAUUUAACUUCUGUUUUUUCUAUACAAAUAUCAUUUUGCUUAUUUUUUUUACUACUAUUCCUAUUUGGAGAGCUGUUCUCAAUCAACAGAGGAUUGAGCAUCA
B10: chr2:219093484:219093485:+_ENSG00000163466_ENST00000315717|hu_hu|FALSE|FALSE (ssRNA)
RNA: GGGAGUUCUACAGUCCGACGAUCGAAUUUCAAAGAAAUACUGACCAUCACUUUUGUUUUGUCUCCAUUAGGAUUUGAAAUAUGAUAGAGGACCCCAUCGAAAUCUGCAAAUGUUACUUCUACUGCUUCCGGUUUGUUUCCGGCCAACAGAGGAUUGAGCAUCA
B11: chr10:33214929:33214930:-_ENSG00000150093_ENST00000302278|hu_hu|hu_hu_hu_mus_True|18_88 (ssRNA)
RNA: GGGAGUUCUACAGUCCGACGAUCAACAAGUUCAUUGAAAAACUCUCCUUUAUUAGUAAGACUAAGCACAUUUUUGUAGCUAAAUGGGCUGGUGCAGUUUUGUUCACUUGUACAAGGGUUCCUGAGCUUUGCUGGGGUUGUGCUCAACAGAGGAUUGAGCAUCA
B12: 39510194_39511413_1180_CDS_ENSG00000109814_ENST00000316423|human|control|control (ssRNA)
RNA: GGGAGUUCUACAGUCCGACGAUCAUAACGAGCUACUUCUGGCAAAUUCAGAGCCUCACAGAGAUAAACCAAAUUCAGAACAUCCUUUUGGAAACAGCUCCCACCAAACCCAACACUGGCUUUUAGAAACUUGUUUCCAAUUCUCAACAGAGGAUUGAGCAUCA
B13: 142886085_142886205_9081_CDS_ENSMUSG00000031004_ENSMUST00000033310|mouse|control|control (ssRNA)
RNA: GGGAGUUCUACAGUCCGACGAUCAGGUACAGGCUUCUCAUCUGUUGCUUCCUGCUUUGGUGCUAAAGAGCGCAAAGCCCUGGUUCUCACAAUGCUUCCAUCUCUUGCAGACUUCCUCUUCGGGGACAGCAAAGGGUUGCUUUUCAACAGAGGAUUGAGCAUCA
B14: 150918690_150919650_944_CDS_ENSG00000033050_ENST00000287844|human|control|control (ssRNA)
RNA: GGGAGUUCUACAGUCCGACGAUCCAUGUGAAUGAUAUUGGUACAGACACCAUUCAGAAAAUCCUGGGAAUGGGAGACGAGGACCAAGAUGCGCUUAAAAGUUUUUAGUUCUUCUUCCAACCACACGCAAGCAUCUAGGUCCAGCAACAGAGGAUUGAGCAUCA
B15: chr11:2966284:2966285:-_ENSG00000205531_ENST00000380542|hu_hu|motif|central (ssRNA)
RNA: GGGAGUUCUACAGUCCGACGAUCAGGUGACCCGCAGCAGCUCUCACCUGGGCUGGUGUGUCACAACCCUGACCCACCCCGGAAAAAAAAAAAAAAUCAAGAAGCAACAUCCUAAGGAGAACAGGGCCCUACUCUACACAGCCCCAACAGAGGAUUGAGCAUCA
B16: chr12:39756943:39756944:-_ENSG00000139116_ENST00000544797|hu_mus|hu_hu_hu_mus_False|58_108 (ssRNA)
RNA: GGGAGUUCUACAGUCCGACGAUCGGUUUGGCUAUUACCCCCAAGGGAAUCCUGCAAGAGUCUUGUCAGCUUAGAGUCUCUAUAGGGGACAUGGGUGGCUCUCUUGCUCUUGUCCCCCAAGGCGCUGAUUACAUUCCCAAGAGCCAACAGAGGAUUGAGCAUCA
B17: chr4:88367131:88367132:-_ENSMUSG00000070923_ENSMUST00000094993|mus_hu|motif|central (ssRNA)
RNA: GGGAGUUCUACAGUCCGACGAUCUUGGUAAUUGCUAGCUUCCAAAAGCAAAUUCACGCAGGUAUUGUCUGUUCUCAUGAAAUCGGCUGUCUGCACGUAAUUGAUGAGAUCCUGUGGUGUCAUCAGUGGAAAUCGAAUAUUCUUCAACAGAGGAUUGAGCAUCA
B18: chr17:65740002:65740003:+_ENSG00000130935_ENST00000581375|hu_hu|hu_hu_hu_mus_False|58_78 (ssRNA)
RNA: GGGAGUUCUACAGUCCGACGAUCAACAAAUCUUUCUUCCCUGGACGAACAGGAAGACAUAAAAGAGAAAAAAUAUAUGUCUAUGAAGUUAGGUGUGGUGGCCACACCUUUACUCCCAGCACUUUGGGAGGUGGAUCUCUGAGUCAACAGAGGAUUGAGCAUCA
B19: 53011563_53012086_1442_CDS_ENSMUSG00000061136_ENSMUST00000076313|mouse|control|control (ssRNA)
RNA: GGGAGUUCUACAGUCCGACGAUCCUCCCCAAACAUUUGCUCAGCUUUUUUGUAUCUGGUUGUGGAAGUCAUUUUCUCAUGAUUUUCAAGAAAACGCUGAAAAGAUUCCUUAGCUUCUUUGUAUUUUGAUCUUGCUUCUUCUUUCAACAGAGGAUUGAGCAUCA
B20: chrX:20248820:20248821:+_ENSMUSG00000001924_ENSMUST00000001989|mus_mus|mus_mus_mus_hu_True|88_98 (ssRNA)
RNA: GGGAGUUCUACAGUCCGACGAUCGGCGAAGUCCGUCAUCACAAAGUCAGGCUCUACCAGUGAGGCCACCAAGGAUUUAAAGCUAAUCUUCUUAGGUACUUUGACCUGACUGACGAUGCCUCCACGGAUGUAGUCGGAGAAGUUCAACAGAGGAUUGAGCAUCA
B21: chr4:144460044:144460045:+_ENSG00000153147_ENST00000283131|hu_mus|hu_hu_hu_mus_False|48_78 (ssRNA)
RNA: GGGAGUUCUACAGUCCGACGAUCACGGUCCAUAGCCUGAAGAUCAACUUGCGGAUUCCAAUCAGAAUCAUAUAAAAUGACUACAUCAGCAGUCGCAAGAUUGAUGCCCAGACCACCAGCACGUGUGCUUAGCAUAAAUACAAACAACAGAGGAUUGAGCAUCA
B22: chr1:245021434:245021435:-_ENSG00000153187_ENST00000283179|hu_mus|FALSE|FALSE (ssRNA)
RNA: GGGAGUUCUACAGUCCGACGAUCGAUAAAAGUACAGUCUUCAGGUAUUGGAAAGUAUGGCUUUUCCUUUUGACCGAAAUUAAAUUCAACUGCACAGUUAUGGCAGAGAACAUGUGGGAAUAGUGGCCGGUCAGCAAGAACUUCCAACAGAGGAUUGAGCAUCA

target: T1, UNK ZnF1-3; test: nsRBNS (natural sequence RNA bind-n-seq); RBNS binding buffer (assumed for nsRBNS): 25 mM Tris pH 7.5, 150 mM KCl, 3 mM MgCl2, 0.01% Triton X-100, 500 ug/ml BSA, 20 U/ml SUPERase-In, 4 C; UNK is unkempt and MSI1 is Musashi-1; names of the RNAs are library labels; protein concentration not given here; high values mean tight binding

Binder | binding signal
B1 | 0.627 enrichment R
B2 | 0.903 enrichment R
B3 | 1.33 enrichment R
B4 | 1.04 enrichment R
B5 | 0.922 enrichment R
B6 | 1.49 enrichment R
B7 | 1.02 enrichment R
B8 | 1.09 enrichment R
B9 | 0.812 enrichment R
B10 | 1.29 enrichment R
B11 | 0.815 enrichment R
B12 | 1.21 enrichment R
B13 | 0.721 enrichment R
B14 | 0.662 enrichment R
B15 | 3.14 enrichment R
B16 | 0.763 enrichment R
B17 | 0.896 enrichment R
B18 | 0.869 enrichment R
B19 | 0.433 enrichment R
B20 | 1 enrichment R
B21 | 1.04 enrichment R
B22 | 0.939 enrichment R
